Data taken from publication PMC9371921, “Strand annealing and motor driven activities of SMARCAL1 and ZRANB3 are stimulated by RAD51 and the paralog complex” (Nucleic Acids Research, 2022).
Numbering of substitutions follows the chain as printed. Names may count otherwise. These are yes or no findings as the source states them, for the method shown. Some binding calls cover weakened binding; strength is not graded here. For some of these results: Sequences can lack the tags named with a protein.

Chains of the proteins cited; added tags and fusions are not shown.
UniProt Q06609: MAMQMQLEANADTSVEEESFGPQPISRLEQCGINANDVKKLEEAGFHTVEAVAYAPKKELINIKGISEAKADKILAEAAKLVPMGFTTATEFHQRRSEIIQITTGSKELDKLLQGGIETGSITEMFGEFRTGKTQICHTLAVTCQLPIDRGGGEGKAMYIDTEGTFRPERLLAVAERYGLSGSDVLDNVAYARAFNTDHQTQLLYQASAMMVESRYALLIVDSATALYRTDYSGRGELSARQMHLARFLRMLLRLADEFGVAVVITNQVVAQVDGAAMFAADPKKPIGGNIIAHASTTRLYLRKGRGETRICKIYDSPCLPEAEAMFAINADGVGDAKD

Tests used:
[1] = target: T1, RAD51 paralog complex RAD51B-RAD51C-RAD51D-XRCC2 (BCDX2) (human) (UniProt O15315+O43502+O75771+O43543); assay: pull-down; anti-His antibody on Dynabeads Protein G, bound to purified BCDX2 (1 μg, bait); purified SMARCAL1 or ZRANB3 (1 μg, prey) in IP buffer (25 mM Tris-HCl pH 7.5, 100 mM NaCl, 3 mM EDTA, 0.5 mM DTT, BSA), 1 h at 4°C; silver staining or Western blot with anti-FLAG and anti-His; both purified
T1 sequence 1: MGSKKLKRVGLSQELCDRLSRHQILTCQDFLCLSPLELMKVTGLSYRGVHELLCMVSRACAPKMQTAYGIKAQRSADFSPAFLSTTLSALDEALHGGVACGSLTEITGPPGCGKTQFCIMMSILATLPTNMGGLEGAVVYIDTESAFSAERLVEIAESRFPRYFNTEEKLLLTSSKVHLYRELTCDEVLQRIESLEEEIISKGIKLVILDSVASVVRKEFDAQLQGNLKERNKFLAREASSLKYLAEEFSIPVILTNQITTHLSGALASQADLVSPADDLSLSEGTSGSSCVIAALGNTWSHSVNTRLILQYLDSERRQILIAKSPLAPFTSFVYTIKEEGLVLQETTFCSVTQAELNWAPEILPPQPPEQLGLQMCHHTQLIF
T1 sequence 2: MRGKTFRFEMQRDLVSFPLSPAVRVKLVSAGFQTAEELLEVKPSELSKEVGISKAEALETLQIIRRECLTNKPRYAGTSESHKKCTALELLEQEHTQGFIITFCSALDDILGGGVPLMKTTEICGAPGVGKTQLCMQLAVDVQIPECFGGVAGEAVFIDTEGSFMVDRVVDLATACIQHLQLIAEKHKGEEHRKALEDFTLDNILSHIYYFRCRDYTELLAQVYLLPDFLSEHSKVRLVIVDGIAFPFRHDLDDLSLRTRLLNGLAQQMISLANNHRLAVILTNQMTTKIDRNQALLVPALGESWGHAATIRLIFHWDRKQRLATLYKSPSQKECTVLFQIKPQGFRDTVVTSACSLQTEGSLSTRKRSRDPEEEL
T1 sequence 3: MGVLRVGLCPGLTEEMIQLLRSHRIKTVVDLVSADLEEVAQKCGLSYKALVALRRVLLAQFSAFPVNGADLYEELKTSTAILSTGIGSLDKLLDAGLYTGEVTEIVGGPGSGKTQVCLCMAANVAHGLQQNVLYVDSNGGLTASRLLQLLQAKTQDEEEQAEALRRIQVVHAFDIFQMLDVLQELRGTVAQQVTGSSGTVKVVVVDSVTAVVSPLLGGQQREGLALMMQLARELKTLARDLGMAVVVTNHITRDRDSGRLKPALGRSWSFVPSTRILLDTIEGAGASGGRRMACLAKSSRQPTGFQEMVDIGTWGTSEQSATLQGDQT
T1 sequence 4: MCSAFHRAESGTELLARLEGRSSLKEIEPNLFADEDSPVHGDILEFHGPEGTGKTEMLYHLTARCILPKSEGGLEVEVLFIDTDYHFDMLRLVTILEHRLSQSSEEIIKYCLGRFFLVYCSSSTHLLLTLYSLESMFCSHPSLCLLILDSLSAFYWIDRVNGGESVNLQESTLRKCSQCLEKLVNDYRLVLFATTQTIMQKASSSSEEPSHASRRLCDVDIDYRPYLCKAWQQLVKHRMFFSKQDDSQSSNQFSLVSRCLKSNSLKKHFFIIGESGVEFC

MBP-RAD51 (human) [2] = target: MBP-RAD51 (human) (UniProt Q06609); assay: pull-down; MBP-RAD51 (bait) from bacterial soluble extract bound to amylose resin and washed; purified FLAG-SMARCAL1, FLAG-ZRANB3 or FLAG-BCDX2 (1 μg, prey) in 150 μl IP buffer (25 mM Tris-HCl pH 7.5, 100 mM NaCl, 3 mM EDTA, 0.5 mM DTT, BSA, 10% glycerol), 1 h at 4°C; eluted with maltose; Western blot with anti-MBP and anti-FLAG; both purified
[3] = target: T2, FLAG-SMARCAL1 (human), Q9NZC9; assay: condition: 2 μl (50 nM) protein solution into 18 μl buffer; mass photometry; 2 μl (50 nM) protein solution added into 18 μl protein elution buffer; movie recorded for 1 min; Refeyn 2MP mass photometer, NativeMark size marker; both purified; conditions: remark: other sources report otherwise
T2 chain: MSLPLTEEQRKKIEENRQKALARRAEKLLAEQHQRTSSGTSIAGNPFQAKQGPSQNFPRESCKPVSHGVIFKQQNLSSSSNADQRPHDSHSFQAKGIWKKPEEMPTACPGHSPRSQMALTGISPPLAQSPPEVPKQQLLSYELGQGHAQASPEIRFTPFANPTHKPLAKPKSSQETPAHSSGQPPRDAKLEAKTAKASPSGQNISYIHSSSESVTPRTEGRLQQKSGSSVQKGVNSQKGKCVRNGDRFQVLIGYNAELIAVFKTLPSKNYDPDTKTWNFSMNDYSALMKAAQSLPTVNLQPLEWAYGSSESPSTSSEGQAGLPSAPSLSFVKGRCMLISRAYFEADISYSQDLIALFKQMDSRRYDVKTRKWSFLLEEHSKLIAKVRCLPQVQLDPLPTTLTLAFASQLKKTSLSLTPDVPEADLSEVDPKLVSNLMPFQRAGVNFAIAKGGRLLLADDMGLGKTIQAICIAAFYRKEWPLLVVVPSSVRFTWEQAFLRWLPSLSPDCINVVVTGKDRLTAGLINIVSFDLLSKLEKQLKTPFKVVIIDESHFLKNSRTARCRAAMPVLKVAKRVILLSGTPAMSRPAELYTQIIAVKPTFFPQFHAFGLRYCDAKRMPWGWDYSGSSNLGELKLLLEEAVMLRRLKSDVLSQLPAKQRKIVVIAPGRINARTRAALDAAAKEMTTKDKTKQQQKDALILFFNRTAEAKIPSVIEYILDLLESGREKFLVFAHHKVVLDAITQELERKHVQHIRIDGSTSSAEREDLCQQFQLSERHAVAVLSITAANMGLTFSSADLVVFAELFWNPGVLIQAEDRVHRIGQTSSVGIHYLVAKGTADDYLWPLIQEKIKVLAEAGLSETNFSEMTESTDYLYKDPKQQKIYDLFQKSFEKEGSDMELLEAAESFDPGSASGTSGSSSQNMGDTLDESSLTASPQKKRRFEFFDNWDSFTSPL

MBP-RAD51 (human) [4] = target: MBP-RAD51 (human) (UniProt Q06609); assay: pull-down; ZRANB3 F→A variants and RAD51 (Supplementary Figure S4); the methods tell two set-ups (MBP-RAD51 on amylose resin with purified FLAG-ZRANB3; FLAG-ZRANB3 variants from Sf9 soluble extract on anti-FLAG resin with purified RAD51) and the text does not tell which was used for which variant; 100 mM NaCl, 1 h at 4°C; both purified

B1: SMARCAL1-F446A (enzyme, UniProt Q9NZC9 1-954)
chain: T2 chain with F446A
[1]
  binding: binds
MBP-RAD51 (human) [2]
  binding: no binding (tested: 1 μg)

B2: FLAG-SMARCAL1, Q9NZC9 1-954 (enzyme)
chain: T2 chain
[3]
  binding: no binding

B3: ZRANB3 F736A (enzyme, UniProt Q5FWF4 1-1079)
chain: MPRVHNIKKSLTPHISCVTNESDNLLDFLPDRLRAKLLPFQKDGIIFALKRNGRCMVADEMGLGKTIQAIGITYFYKEEWPLLIVVPSSLRYPWTEEIEKWIPELSPEEINVIQNKTDVRRMSTSKVTVLGYGLLTADAKTLIDALNNQNFKVVIVDESHYMKSRNATRSRILLPIVQKARRAILLTGTPALGRPEELFMQIEALFPQKFGRWTDYAKRYCNAHIRYFGKRPQWDCRGASNLNELHQLLSDIMIRRLKTEVLTQLPPKVRQRIPFDLPSAAAKELNTSFEEWEKIMRTPNSGAMETVMGLITRMFKQTAIAKAGAVKDYIKMMLQNDSLKFLVFAHHLSMLQACTEAVIENKTRYIRIDGSVSSSERIHLVNQFQKDPDTRVAILSIQAAGQGLTFTAASHVVFAELYWDPGHIKQAEDRAHRIGQCSSVNIHYLIANGTLDTLMWGMLNRKAQVTGSTLNGRKEKIQAEEGDKEKWDFLQFAEAWTPNDSSEELRKEALFTHFEKEKQHDIRSFFVPQPKKRQLMTSCDESKRFREENTVVSSDPTKTAARDIIDYESDVEPETKRLKLAASEDHCSPSEETPSQSKQIRTPLVESVQEAKAQLTTPAFPVEGWQCSLCTYINNSELPYCEMCETPQGSAVMQIDSLNHIQDKNEKDDSQKDTSKKVQTISDCEKQALAQSEPGQLADSKEETPKIEKEDGLTSQPGNEQWKSSDTLPVYDTLMACASRNTDRIHIYTKDGKQMSCNFIPLDIKLDLWEDLPASFQLKQYRSLILRFVREWSSLTAMKQRIIRKSGQLFCSPILALEEITKQQTKQNCTKRYITKEDVAVASMDKVKNVGGHVRLITKESRPRDPFTKKLLEDGACVPFLNPYTVQADLTVKPSTSKGYLQAVDNEGNPLCLRCQQPTCQTKQACKANSWDSRFCSLKCQEEFWIRSNNSYLRAKVFETEHGVCQLCNVNAQELFLRLRDAPKSQRKNLLYATWTSKLPLEQLNEMIRNPGEGHFWQVDHIKPVYGGGGQCSLDNLQTLCTVCHKERTARQAKERSQVRRQSLASKHGSDITRFLVKK
MBP-RAD51 (human) [4]
  binding: no binding
